From the RNAGym collection of RNA variant scans (doi:10.1073/pnas.2313332121)
Variants at the background level are over-represented here.

B1: TPR 5TU (parent)
chain: GGAUCUUCUCGAUCUAACAAAAAAGACAAAUCUGCCACAAAGCUUGAGAGCAUCUUCGGAUGCAGAGGCGGCAGCCUUCGGUGGCGCGAUAGCGCCAACGUUCUCAACUAUGACACGCAAAACGCGUGCUCCGUUGAAUGGAGUUUAUCAUG

Variants of: B1
Test: polymerase ribozyme fitness, log enrichment relative to wild type (log ratio); higher = more active; in vitro selection for triplet polymerase activity
Outline: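 In triplicate, a single round of in vitro selection was run on each mutant library, PCR-built and transcribed, covering one subunit of a heterodimeric triplet polymerase ribozyme. Frozen incubation at −7 °C followed annealing with a biotinylated primer, partner subunit and triplets, and extended constructs were then gel-excised, streptavidin-captured and taken through RT-PCR. Fitness is the logarithm of genotype enrichment over wild-type enrichment, from inverse-variance-weighted replicate averages of Illumina-sequenced inputs and outputs. […] only genotypes with ≥10 input reads and ≥1 read per output were kept.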

A16U A23U A64C C79U G83U C96G A142C and A16U A24C G48U U109A A115G cannot be ordered by “polymerase ribozyme fitness (log ratio)” value: no more than -4.2 for the first, no more than -4.2 for the second.

A16U A24C G68U G84A C116G G124A C129A G143U and A16U A24G A49G A138C U148G cannot be ordered by “polymerase ribozyme fitness (log ratio)” value: no more than -4.2 for the first, no more than -4.2 for the second.

A16U A24G C72G G84A C105U C123U U127C and A16U A24U A30C G65A C76U C96G cannot be ordered by “polymerase ribozyme fitness (log ratio)” value: no more than -4.2 for the first, no more than -4.2 for the second.

A16U A24U A41U G48A G94A C99A and A16U A24U C35U G92A U127A cannot be ordered by “polymerase ribozyme fitness (log ratio)” value: no more than -4.2 for the first, no more than -4.2 for the second.

First: A16U A24U U33A C35U C87G
Second: A16U A24U U55A U56A G70C G83C G112C A120U G141U
The “polymerase ribozyme fitness (log ratio)” value of the first is higher: -4.15 for the first, no more than -4.2 for the second.

A16U A24U U61A A91C C99G C105G C114U U144G and A16U A26C A30C C43U A47C A49C C103A C129U cannot be ordered by “polymerase ribozyme fitness (log ratio)” value: no more than -4.2 for the first, no more than -4.2 for the second.

A16U A26C G42C A60C C76A G92U A110G U146C and A16U A26C G74A C99G G128U cannot be ordered by “polymerase ribozyme fitness (log ratio)” value: no more than -4.2 for the first, no more than -4.2 for the second.

A16U A26G U56A G68C G84U A91U C93G C132G and A16U A28C A40C A52C G74U C87A A122U U144G C149G cannot be ordered by “polymerase ribozyme fitness (log ratio)” value: no more than -4.2 for the first, no more than -4.2 for the second.

A16U A28C G58A A60G U82G C93U and A16U A28C G58C G83U C108A cannot be ordered by “polymerase ribozyme fitness (log ratio)” value: no more than -4.2 for the first, no more than -4.2 for the second.

A16U A28C G94U C96U A110C and A16U A28C U31C G83A U101C cannot be ordered by “polymerase ribozyme fitness (log ratio)” value: no more than -4.2 for the first, no more than -4.2 for the second.

A16U A28G G34A C79G G81C C99A A147G and A16U A28U C54U G117C cannot be ordered by “polymerase ribozyme fitness (log ratio)” value: no more than -4.2 for the first, no more than -4.2 for the second.

A16U A29C A52G G68A U101C G136U and A16U A29C C85U U146G cannot be ordered by “polymerase ribozyme fitness (log ratio)” value: no more than -4.2 for the first, no more than -4.2 for the second.

A16U A29G G92A and A16U A29U A91C A98G C99A U148A cannot be ordered by “polymerase ribozyme fitness (log ratio)” value: no more than -4.2 for the first, no more than -4.2 for the second.

A16U A29U G59C G62C G80C C103U A137C and A16U A29U U61G C93G A122G cannot be ordered by “polymerase ribozyme fitness (log ratio)” value: no more than -4.2 for the first, no more than -4.2 for the second.

A16U A30G G83A U102G A107U and A16U A30U A60C G83U A97G cannot be ordered by “polymerase ribozyme fitness (log ratio)” value: no more than -4.2 for the first, no more than -4.2 for the second.

A16U A37G C95G A142G and A16U A37U U45A C93U G100C U111C C114A G141U cannot be ordered by “polymerase ribozyme fitness (log ratio)” value: no more than -4.2 for the first, no more than -4.2 for the second.

A16U A40G A66G C99G U104G G152U and A16U A40G C75U G94C U130G C131A cannot be ordered by “polymerase ribozyme fitness (log ratio)” value: no more than -4.2 for the first, no more than -4.2 for the second.

A16U A40G C87A U148A and A16U A40G G58A U77C G92U cannot be ordered by “polymerase ribozyme fitness (log ratio)” value: no more than -4.2 for the first, no more than -4.2 for the second.

A16U A41G A47C C76G G88C G94C A110C U134A G140A G141C A147C and A16U A41G C51U G74C C95U C103U C118U G133A cannot be ordered by “polymerase ribozyme fitness (log ratio)” value: no more than -4.2 for the first, no more than -4.2 for the second.

A16U A47C U53A C85G C131A U134A G140U and A16U A47G C79U G81C C105G U130A cannot be ordered by “polymerase ribozyme fitness (log ratio)” value: no more than -4.2 for the first, no more than -4.2 for the second.

A16U A47G G48U C85G C95A and A16U A49C C69G G92C C99U A107G G136A G141U cannot be ordered by “polymerase ribozyme fitness (log ratio)” value: no more than -4.2 for the first, no more than -4.2 for the second.

Compared with A16U A49C G62A G92A A150U, A16U A49G is higher in “polymerase ribozyme fitness (log ratio)” value: no more than -4.2 for the first, -1.93 for the second.

A16U A52C C85A C87U U139G and A16U A52G G58A U61A C76G C79G U90C cannot be ordered by “polymerase ribozyme fitness (log ratio)” value: no more than -4.2 for the first, no more than -4.2 for the second.

A16U A52U A60G C93U and A16U A60U G86A C114U cannot be ordered by “polymerase ribozyme fitness (log ratio)” value: no more than -4.2 for the first, no more than -4.2 for the second.

A16U A64U A66C C93G and A16U A64U C85G G88A C116G G128U U139G U144G cannot be ordered by “polymerase ribozyme fitness (log ratio)” value: no more than -4.2 for the first, no more than -4.2 for the second.

A16U A66U G124A and A16U A91C A106G cannot be ordered by “polymerase ribozyme fitness (log ratio)” value: no more than -4.2 for the first, no more than -4.2 for the second.

A16U A91U U146A and A16U A110U G140C cannot be ordered by “polymerase ribozyme fitness (log ratio)” value: no more than -4.2 for the first, no more than -4.2 for the second.

A16U A137U G140C A142G and A16U C18G C32G G58C C87A A120G cannot be ordered by “polymerase ribozyme fitness (log ratio)” value: no more than -4.2 for the first, no more than -4.2 for the second.

A16U C18U A20C A29U C38U G94A C105G and A16U C18U A41C G74A C93A cannot be ordered by “polymerase ribozyme fitness (log ratio)” value: no more than -4.2 for the first, no more than -4.2 for the second.

A16U C27A A40C A113C C149G and A16U C27A G42A U44G U45A A49C A113G U144A cannot be ordered by “polymerase ribozyme fitness (log ratio)” value: no more than -4.2 for the first, no more than -4.2 for the second.

A16U C27G U77A G84U G126A and A16U C27U C95A U148G cannot be ordered by “polymerase ribozyme fitness (log ratio)” value: no more than -4.2 for the first, no more than -4.2 for the second.

A16U C32A C35G A47C G58C G68A G70U C96G G126C and A16U C32G A37G A97G G124A G133U U135C cannot be ordered by “polymerase ribozyme fitness (log ratio)” value: no more than -4.2 for the first, no more than -4.2 for the second.

A16U C32G A60G G88A C105A U148A and A16U C35A C87A A91G C149G cannot be ordered by “polymerase ribozyme fitness (log ratio)” value: no more than -4.2 for the first, no more than -4.2 for the second.

A16U C35A G74A G80C G83U G86A A97U and A16U C35G G50A G88U C99G C105G C116U G143C cannot be ordered by “polymerase ribozyme fitness (log ratio)” value: no more than -4.2 for the first, no more than -4.2 for the second.

A16U C35U A49C C75U A142U and A16U C35U C93U G136U U139A cannot be ordered by “polymerase ribozyme fitness (log ratio)” value: no more than -4.2 for the first, no more than -4.2 for the second.

A16U C35U G74C C93U A150U G152A and A16U C38U A91U C103A cannot be ordered by “polymerase ribozyme fitness (log ratio)” value: no more than -4.2 for the first, no more than -4.2 for the second.

A16U C38U C108U and A16U C43A G50C U56A C69G A73G G94A C108G cannot be ordered by “polymerase ribozyme fitness (log ratio)” value: no more than -4.2 for the first, no more than -4.2 for the second.

Compared with A16U C43U C87U U104G A107G C118A, A16U C51U C95U is higher in “polymerase ribozyme fitness (log ratio)” value: no more than -4.2 for the first, -2.98 for the second.

A16U C54A G58C A91U C95G A142U and A16U C54G A97C C116G G124U A137C cannot be ordered by “polymerase ribozyme fitness (log ratio)” value: no more than -4.2 for the first, no more than -4.2 for the second.

Compared with A16U C54U, A16U C63U G92A is lower in “polymerase ribozyme fitness (log ratio)” value: -1.53 for the first, no more than -4.2 for the second.

A16U C75G G84U A122C and A16U C76A G83C C95G cannot be ordered by “polymerase ribozyme fitness (log ratio)” value: no more than -4.2 for the first, no more than -4.2 for the second.

For A16U C76A G94A C96U G128A, the “polymerase ribozyme fitness (log ratio)” value was no more than -4.2.
